Reference: PubChem BioAssay AID995 (National Center for Advancing Translational Sciences (NCATS), 2007)
The whole screen tested about 72,000 compounds, of which about 710 (0.99%) were called active. The inconclusive results got no clear call from the source; some entries with a clear call stand among them for comparison. Calls come from the whole dose curve; as a rule, active = well fitted inhibition curve with a large enough effect; inconclusive = small, poorly fitted or top-dose-only effect; inactive = no such curve, though single readings can be large or run the other way. A potency beside an inconclusive call is a rough fit, not a confirmed value. Some compounds were tested as several samples or in several runs, with calls that do not always agree.

Test: qHTS Assay for Inhibitors of the ERK Signaling Pathway using a Homogeneous Screening Assay; note: nearly all actives have a fitted effect of over 55% in size
Conditions: HEK293-V1b, vasopressin-stimulated pERK AlphaScreen; activity, negative = inhibition: at 57.5 µM (top of the series) unless noted
Method in brief: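 HEK293 cells stably expressing V1b receptor, seeded overnight in 1% FBS, were treated with compounds for 30 min at 37C, then stimulated 5 min with 25 nM vasopressin; phospho-ERK read by AlphaScreen SureFire after lysis.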
% is set by controls: 0 for no effect and ±100 for the full control effect; potency is the fitted concentration of half-maximal effect; tags give direction and shape of the fitted curve.

Potency, inactive:
NC(=O)c1c(NC(=O)Cc2cccs2)sc2c1CCC2, Clc1ccc2nc(N3CCCCC3)[nH]c2c1, Cc1cc(NC(=O)CSc2nc(-c3ccco3)cc(C(F)(F)F)n2)no1, CCC(C)c1ccc(O)c(N)c1 (stereo unspecified), COc1ccc(CN2C(=O)[C@@H]3C(c4ccccc4Cl)=NO[C@@H]3C2=O)cc1, Cc1ccc(S(=O)(=O)N2CCN(C(=O)CN3CCOCC3)C2c2ccccc2)cc1 (stereo unspecified), Cc1ccccc1CS(=O)(=O)Cc1ccc(C(=O)NCCCN2CCCC2=O)o1, O=C1C2C3C=CC(C3)C2C(=O)N1c1ccccc1 (stereo unspecified), Nn1cc(-c2ccccc2)nc1SCC(=O)N1CCN(S(=O)(=O)c2ccccc2)CC1, Cc1ccc(OCC(=O)Nc2ccc(-c3nc4ncccc4o3)cc2)c(C)c1, Cn1c(=O)oc2cc(S(=O)(=O)Nc3ccc4c(c3)OCO4)ccc21, CC1=C(C(=O)Nc2ccccn2)C(c2cccnc2)n2nnnc2N1 (stereo unspecified), CCN(CC)CCC[C@H](C)Nc1c2ccc(Cl)cc2nc2ccc(OC)cc12, CCC(C)(C)n1nnnc1C(c1cc2ccc(C)cc2[nH]c1=O)N(Cc1cccnc1)Cc1ccco1 (stereo unspecified), Cc1nnc(N2CCN(Cc3ccccc3)CC2)[nH]c1=O, COc1ccc(-c2nc(SC)n(S(=O)(=O)c3ccccc3)n2)cc1, COC(=O)[C@@H]1C[C@@H]2CC[C@@H](O)C[C@@H]2N1Cc1ccc(C)s1, Clc1cccc(Cl)c1COc1ccccn1, Cc1ccc(/C=c2\sc3nc(-c4ccccc4Br)nn3c2=O)o1, CCSc1ccc2nnc(-c3ccc(F)cc3)n2n1, c1ccc2c(N3CCNCC3)nc(-c3ccoc3)nc2c1, COc1cc2c(cc1OC)C(C(=O)NC1CC1)C1c3ccccc3CCN1C2=O (stereo unspecified), COc1ccc(CNc2ncnc3ccc(-c4ccccc4C#N)cc23)c(OC)c1, Cn1c(C(=O)N(Cc2ccccc2)Cc2ccccn2)cc2sccc21, O=C(c1csnn1)N1CCC2(CCN(Cc3nccs3)CC2)CC1, COC(=O)CNC(=O)C1(CC(C)C)C=CCN1C(C)=O (stereo unspecified), CC(=O)N1[C@H](Cc2ccccc2)C=C[C@]1(C)C(=O)O, CCOc1ccc(S(=O)(=O)N(CC(N)=O)c2ccc(C)cc2)cc1, Cn1c(SCc2c(Cl)cccc2Cl)nnc1-c1cccs1, Oc1ccccc1C1=Nc2nc3ccccc3n2C(c2ccccc2)C1 (stereo unspecified)

Potency, active:
COc1ccc(N2CCN(c3nc(NCCc4ccc(OC)c(OC)c4)nc(OC)n3)CC2)cc1 15.8 µM, CCOC(=O)Cc1csc(NC(=O)CSc2ncnc3c2cnn3-c2ccc(OC)cc2)n1 5.01 µM, O=c1c(O)c(-c2ccc(O)c(O)c2)oc2cc(O)ccc12 12.6 µM, COc1ccc(-c2csc(N3CCC(C(N)=O)(N4CCCCC4)CC3)n2)cc1 25.1 µM

Potency, inconclusive:
N#C/C(=C\c1ccc(O)c(O)c1)C(=O)c1ccc(O)c(O)c1 20 µM [inhibitor, single point], Cc1c(C(=O)OCC(C)C)[nH]c2c1C(=O)CC(c1ccco1)C2 (stereo unspecified) 31.6 µM [inhibitor, single point], COc1ccc(-c2nc(CS(=O)CC(=O)NC3CCCc4ccccc43)c(C)o2)cc1OC (stereo unspecified) 7.94 µM [inhibitor, partial curve], Cn1c(C(=O)NCCCN2CCCC2=O)cc2c(=O)n(C)c3ccccc3c21 39.8 µM [inhibitor, single point], Brc1c(OCCOCCn2cncn2)ccc2ccccc12 31.6 µM [inhibitor, single point], COc1cccc(-c2nn(-c3ccccc3)cc2CO)c1 20 µM [inhibitor, partial curve], COc1ccc(-c2nc(C(N)=O)c3[nH]c(=O)n(-c4cccc(Cl)c4)c3n2)cc1OC 12.6 µM [inhibitor, partial curve], CCOc1cc(-c2cc(-c3ccc(N)cc3)nc(N)c2C#N)ccc1O 0.794 µM [inhibitor, partial curve], O=C(CSc1nnc(-c2ccc(O)cc2)n1Cc1ccco1)c1cccs1 31.6 µM [inhibitor, single point], COc1ccc(C2COc3c(ccc(O)c3OC)C2)c(OC)c1O (stereo unspecified) 2.51 µM [inhibitor, partial curve], CCn1c(SCC(=O)N2CCCc3ccccc32)nc2cccnc21 25.1 µM [inhibitor, single point], Cn1c(SCc2nc3ccccc3[nH]2)nnc1-c1ccccn1 5.01 µM [inhibitor, full curve, poor fit], CCOC(=O)c1sc(=S)n(-c2ccc3c(c2)OCO3)c1N 39.8 µM [inhibitor, single point], N=c1n(CCN2CCOCC2)c2ccccc2n1CC(=O)c1ccc(Cl)c(Cl)c1 7.94 µM [inhibitor, partial curve], Cn1cccc1Cc1nnc(SCC(=O)Nc2ccccc2F)n1CCc1ccccc1 25.1 µM [inhibitor, single point], COc1ccc(CN(C(=O)c2ccco2)c2ccc(Br)cc2)cc1OC 15.8 µM [inhibitor, single point], Cn1c(=O)c2[nH]c(C3CCCC3)nc2n(C)c1=O 1.58 µM [inhibitor, single point], N#CCCN1CCN(C(=S)c2ccc(-c3cccc(Cl)c3)o2)CC1 20 µM [inhibitor, single point], CCOC(=O)C1CCN(C(=O)Cn2cc(C(=O)c3ccco3)c3ccccc32)CC1 39.8 µM [inhibitor, single point], CC1(C)Cc2c(sc3c2c2ncnn2c2nnc(SCC(=O)NCc4ccco4)n32)CO1 25.1 µM [inhibitor, single point], O=C(NCCC1=CCCCC1)c1ccc(Cl)c(S(=O)(=O)N2CCOCC2)c1 12.6 µM [inhibitor, partial curve], CCn1c(SCC(=O)Nc2cc(C)on2)nnc1-c1cccnc1 31.6 µM [inhibitor, partial curve, poor fit], Cc1cccc(-n2c(SCC(=O)NCc3ccco3)nc3ccccc3c2=O)c1 12.6 µM [inhibitor, partial curve, poor fit], N#Cc1nc(-c2ccc(OCc3ccccc3)cc2)oc1NCCCN1CCOCC1 25.1 µM [inhibitor, single point], Cn1c(=O)c2c(nc(NCCCN3CCOCC3)n2Cc2ccc(Cl)cc2)n(C)c1=O 20 µM [inhibitor, partial curve, poor fit], O=C(OCc1cc2ccccc2[nH]c1=O)c1ccccc1 31.6 µM [inhibitor, single point], CN(C(=O)C1CCCO1)c1nnc(-c2ccccn2)s1 (stereo unspecified) 0.251 µM [inhibitor, partial curve], COC(=O)c1c(C(=O)OC)c2n(c1C)CCC2 25.1 µM [inhibitor, single point], Cc1cccc(NC(=O)C2CCCN(S(=O)(=O)c3c(C)nn(C)c3C)C2)n1 (stereo unspecified) 25.1 µM [inhibitor, partial curve, poor fit], OCCN1CCN(C(c2cccs2)c2ccc3cccnc3c2O)CC1 (stereo unspecified) 25.1 µM [inhibitor, single point], CC(C)c1nc(N2CCN(C(=O)c3ccco3)CC2)c2c3c(sc2n1)CCCC3 39.8 µM [inhibitor, single point], C=CCSc1nnc2c(n1)[nH]c1c(C)cccc12 39.8 µM [inhibitor, single point], COc1ccc(N2CCN(Cc3nc(N)nc(Nc4ccc(C)c(Cl)c4)n3)CC2)cc1 31.6 µM [inhibitor, single point], O=C(CC(=O)c1cc(Cl)ccc1O)c1ccccc1 39.8 µM [inhibitor, single point], CCOc1ccc(N2C(=O)CC(N3CCOCC3)C2=O)cc1 (stereo unspecified) 39.8 µM [inhibitor, single point], CC12C=CC3(CN(Cc4ccccc4)C(=O)C3C1C(=O)NCc1ccco1)O2 (stereo unspecified) 39.8 µM [inhibitor, single point], O=C(Nc1ccc2c(c1)OCO2)c1cc2ncc(Br)cn2n1 12.6 µM [inhibitor, partial curve, poor fit], c1cc2cn[nH]c2cc1NC1CCCCCC1 12.6 µM [inhibitor, partial curve]

activity, negative = inhibition, inactive:
N[C@@H](CSCc1ccc(I)cc1)C(=O)O -13.5% [at 11.5 µM], Nc1nc(N)c(CCCCc2ccccc2)c(N)n1 -15.7% [at 11.5 µM], CCOC(=O)N/N=C1/C[C@@H](O)[C@@H](O)[C@@H]2[C@@H]3C(=O)N([C@@H](C)c4ccccc4)C(=O)[C@H]3CC[C@H]12 -8.14% [at 11.5 µM], CCN1C(=O)[C@H]2[C@H]3[C@H](O)[C@H](O)C/C(=N/NC(=O)OCc4ccccc4)[C@@H]3CC[C@@H]2C1=O -7.61% [at 11.5 µM]
